# Measured values as given in the supplement of paper PMC8728848.
# This is one part of the list.
# How the values were obtained:
# Assay in all cases: glycan array binding signal (z-score within array); higher = stronger binding
# Settings in all cases: glycan notation: IUPAC condensed, linker removed
# [1] = molecular target: Man(a1-2)Man(a1-3)[Man(a1-2)Man(a1-6)]Man
# Procedure, shortened: (§1)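 Columns mapping to the same glycan were averaged after glycan names were converted to IUPAC-condensed notation. The data come from 3228 arrays in the Consortium for Functional Glycomics database, limited to those with an available protein sequence. Binding is reported as a within-array Z-score averaged across arrays of one protein sequence and across linkers.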
# [2] = molecular target: Man(a1-2)Man(a1-3)[Man(a1-2)Man(a1-6)]Man(a1-6)[Man(a1-2)Man(a1-2)Man(a1-3)]Man
# Procedure, shortened: as §1
# [3] = molecular target: Man(a1-2)Man(a1-3)[Man(a1-2)Man(a1-6)]Man(a1-6)[Man(a1-2)Man(a1-2)Man(a1-3)]Man(b1-4)GlcNAc(b1-4)GlcNAc
# Procedure, shortened: as §1
# [4] = molecular target: Man(a1-2)Man(a1-3)[Man(a1-6)]Man(a1-6)[Man(a1-2)Man(a1-3)]Man(b1-4)GlcNAc(b1-4)GlcNAc
# Procedure, shortened: as §1
# [5] = molecular target: Man(a1-2)Man(a1-6)[Man(a1-3)]Man(a1-6)[Man(a1-2)Man(a1-2)Man(a1-3)]Man
# Procedure, shortened: as §1
# [6] = molecular target: Man(a1-2)Man(a1-6)[Man(a1-3)]Man(a1-6)[Man(a1-2)Man(a1-2)Man(a1-3)]Man(b1-4)GlcNAc(b1-4)GlcNAc
# Procedure, shortened: as §1
# Man(a1-3)[Man(a1-6)]Man = molecular target: Man(a1-3)[Man(a1-6)]Man
# Procedure, shortened: as §1
# [7] = molecular target: Man(a1-3)[Man(a1-6)]Man(a1-6)[Man(a1-2)Man(a1-3)]Man(b1-4)GlcNAc(b1-4)GlcNAc
# Procedure, shortened: as §1
# [8] = molecular target: Man(a1-3)[Man(a1-6)]Man(a1-6)[Man(a1-3)]Man
# Procedure, shortened: as §1
# [9] = molecular target: Man(a1-3)[Man(a1-6)]Man(a1-6)[Man(a1-3)]Man(b1-4)GlcNAc(b1-4)GlcNAc
# Procedure, shortened: as §1
# [10] = molecular target: Man(a1-3)[Man(a1-6)]Man(b1-4)GlcNAc(b1-4)GlcNAc
# Procedure, shortened: as §1
# [11] = molecular target: Man(a1-3)[Man(a1-6)]Man(b1-4)GlcNAc(b1-4)[Fuc(a1-6)]GlcNAc
# Procedure, shortened: as §1
# Man(a1-6)Man = molecular target: Man(a1-6)Man
# Procedure, shortened: as §1
# Man(b1-4)GlcNAc = molecular target: Man(b1-4)GlcNAc
# Procedure, shortened: as §1
# MurNAc(b1-4)GlcNAc = molecular target: MurNAc(b1-4)GlcNAc
# Procedure, shortened: as §1
# Neu5Ac(a2-3)Gal = molecular target: Neu5Ac(a2-3)Gal
# Procedure, shortened: as §1
# [12] = molecular target: Neu5Ac(a2-3)Gal(b1-3)GalNAc
# Procedure, shortened: as §1
# [13] = molecular target: Neu5Ac(a2-3)Gal(b1-3)GalNAc(b1-3)Gal(a1-4)Gal(b1-4)Glc
# Procedure, shortened: as §1
# [14] = molecular target: Neu5Ac(a2-3)Gal(b1-3)GalNAc(b1-4)Gal(b1-4)Glc
# Procedure, shortened: as §1
# [15] = molecular target: Neu5Ac(a2-3)Gal(b1-3)GalNAc(b1-4)[Neu5Ac(a2-3)]Gal(b1-4)Glc
# Procedure, shortened: as §1
# [16] = molecular target: Neu5Ac(a2-3)Gal(b1-3)GalNAc(b1-4)[Neu5Ac(a2-8)Neu5Ac(a2-3)]Gal(b1-4)Glc
# Procedure, shortened: as §1
# [17] = molecular target: Neu5Ac(a2-3)Gal(b1-3)GalNAc6S
# Procedure, shortened: as §1
# [18] = molecular target: Neu5Ac(a2-3)Gal(b1-3)GlcNAc
# Procedure, shortened: as §1
# [19] = molecular target: Neu5Ac(a2-3)Gal(b1-3)GlcNAc(b1-2)Man
# Procedure, shortened: as §1
# [20] = molecular target: Neu5Ac(a2-3)Gal(b1-3)GlcNAc(b1-2)Man(a1-3)[GlcNAc(b1-4)][Neu5Ac(a2-3)Gal(b1-3)GlcNAc(b1-2)Man(a1-6)]Man(b1-4)GlcNAc(b1-4)GlcNAc
# Procedure, shortened: as §1
# [21] = molecular target: Neu5Ac(a2-3)Gal(b1-3)GlcNAc(b1-2)Man(a1-3)[Neu5Ac(a2-3)Gal(b1-3)GlcNAc(b1-2)Man(a1-6)]Man(b1-4)GlcNAc(b1-4)GlcNAc
# Procedure, shortened: as §1
# [22] = molecular target: Neu5Ac(a2-3)Gal(b1-3)GlcNAc(b1-2)[Neu5Ac(a2-3)Gal(b1-3)GlcNAc(b1-4)]Man(a1-6)[Neu5Ac(a2-3)Gal(b1-3)GlcNAc(b1-2)Man(a1-3)]Man(b1-4)GlcNAc(b1-4)GlcNAc
# Procedure, shortened: as §1
# [23] = molecular target: Neu5Ac(a2-3)Gal(b1-3)GlcNAc(b1-3)Gal(b1-3)GlcNAc
# Procedure, shortened: as §1
# [24] = molecular target: Neu5Ac(a2-3)Gal(b1-3)GlcNAc(b1-3)Gal(b1-4)GlcNAc
# Procedure, shortened: as §1
# [25] = molecular target: Neu5Ac(a2-3)Gal(b1-3)GlcNAc(b1-3)GalNAc
# Procedure, shortened: as §1
binder,measurement,setting,value
Di AAL2 (Agrocybe aegerita) (protein) MTSNVITQDLPIPVASRGFADIVGFGLDGVVIGRNAVNLQPFLAVKNFAQNAGGWLTTKHVRLIADTTGTGKGDIVGFGNAGVYVSVNNGKNTFADPPKMVIANFGYDAGGWRVEKHLRYLADIRKIGRADIIGFGEKGVLVSRNNGGLNFGPATLVLKDFGYDAGGWRLDRHLRFLADVTGNGHLDIVGFGDKHVFISRNNGDGTFAPAKSVIDNFCIDAGGWKIGDHPRFVADLTGDGTADIIGCGKAGCWVALNNGGGVFGQVKLVINDFGTDKGWQAAKHPRFIADLTGNGRGDVVGFGNAGVYVALNNGDGTFQSAKLVLKDFGVQQGWTVSKHRRFVVDLTGDGCADIIGFGEKETLVSYNDGKGNFGPVKALTNDFSFSGGKWAPETTVCWMANLDSSRHPAPAPMTSNVITQDLPIPVASRGFADIVGFGLDGVVIGRNAVNLQPFLAVKNFAQNAGGWLTTKHVRLIADTTGTGKGDIVGFGNAGVYVSVNNGKNTFADPPKMVIANFGYDAGGWRVEKHLRYLADIRKIGRADIIGFGEKGVLVSRNNGGLNFGPATLVLKDFGYDAGGWRLDRHLRFLADVTGNGHLDIVGFGDKHVFISRNNGDGTFAPAKSVIDNFCIDAGGWKIGDHPRFVADLTGDGTADIIGCGKAGCWVALNNGGGVFGQVKLVINDFGTDKGWQAAKHPRFIADLTGNGRGDVVGFGNAGVYVALNNGDGTFQSAKLVLKDFGVQQGWTVSKHRRFVVDLTGDGCADIIGFGEKETLVSYNDGKGNFGPVKALTNDFSFSGGKWAPETTVCWMANLDSSRH,glycan array binding signal (z-score),[1],-0.256
same,glycan array binding signal (z-score),[2],-0.348
same,glycan array binding signal (z-score),[3],-0.32
same,glycan array binding signal (z-score),[4],-0.345
same,glycan array binding signal (z-score),[5],-0.341
same,glycan array binding signal (z-score),[6],-0.323
same,glycan array binding signal (z-score),Man(a1-3)[Man(a1-6)]Man,-0.336
same,glycan array binding signal (z-score),[7],-0.329
same,glycan array binding signal (z-score),[8],-0.304
same,glycan array binding signal (z-score),[9],-0.333
same,glycan array binding signal (z-score),[10],-0.332
same,glycan array binding signal (z-score),[11],-0.327
same,glycan array binding signal (z-score),Man(a1-6)Man,-0.329
same,glycan array binding signal (z-score),Man(b1-4)GlcNAc,-0.329
same,glycan array binding signal (z-score),MurNAc(b1-4)GlcNAc,0.692
same,glycan array binding signal (z-score),Neu5Ac(a2-3)Gal,-0.2
same,glycan array binding signal (z-score),[12],-0.216
same,glycan array binding signal (z-score),[13],-0.151
same,glycan array binding signal (z-score),[14],-0.314
same,glycan array binding signal (z-score),[15],0.03
same,glycan array binding signal (z-score),[16],-0.302
same,glycan array binding signal (z-score),[17],-0.173
same,glycan array binding signal (z-score),[18],-0.228
same,glycan array binding signal (z-score),[19],-0.242
same,glycan array binding signal (z-score),[20],-0.329
same,glycan array binding signal (z-score),[21],-0.321
same,glycan array binding signal (z-score),[22],-0.176
same,glycan array binding signal (z-score),[23],0.091
same,glycan array binding signal (z-score),[24],0.065
same,glycan array binding signal (z-score),[25],-0.098
